Experimental data as given in the supplement of paper PMC10126150.
Sequences with one replicate were seen in a single cluster, so their values are uncertain.
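Also: ATP exposure 15 min at 22 °C before imaging.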

What follows are sequences tested on ATP (assay: switch fluorescence ratio, 500 uM ATP over buffer (Cy3 cluster intensity, sum of 5 cycles each) (fold (ratio)); higher = stronger signal-on switching upon ATP binding; sequences stand for … in TCGTCGGCAGCGTCAGATGTGTATAAGAGACAGTTTTTTTTTTTTTTTTTTTTTTTTT…TC). Conditions: aptamer strand: ATP DNA aptamer (quencher-CACCTGGGGGAGTATTGCGGAGGAAGG + anchor), 100 nM annealed; ATP concentration: 500 uM; one replicate.
Outline: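 Clusters with intensities outside 100-1000 RFU were excluded. The remaining Cy3-labelled switching-strand clusters on a modified Illumina MiSeq flow-cell had been annealed to 100 nM quencher-labelled ATP aptamer and imaged in selection buffer, then after 15 min with 500 uM ATP at 22 °C, for five cycles separated by NaOH stripping and re-annealing. The fluorescence ratio, averaged per switch-domain sequence, is each cluster's summed target-cycle Cy3 intensity over its summed buffer-cycle Cy3 intensity.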
For GATGTCTGAC, the switch fluorescence ratio was 1.06.
CGGCCTAACA gave a switch fluorescence ratio of 0.979.
With TCGGACCTGG the switch fluorescence ratio was 1.08.
CGTAACAGGT gave a switch fluorescence ratio of 1.03.
With ACTTTAGATA the switch fluorescence ratio was 0.995.
With CGATCTGAGA the switch fluorescence ratio was 1.
TGGCTGCGGT was tested, and the switch fluorescence ratio was 1.01.
In the case of GACTGCTAGC, the switch fluorescence ratio is reported as 1.12.
In the case of CTAGTAAGGA, the switch fluorescence ratio is reported as 0.982.
Work on TCATTTGGGT yielded a switch fluorescence ratio of 0.983.
For AAAACGGCCG, the switch fluorescence ratio was 0.916.
For TTTTTCTCAA, the switch fluorescence ratio was 1.04.
GGTCCCCTCT showed a switch fluorescence ratio of 1.02.
With AGCGGCCAAT the switch fluorescence ratio was 1.04.
In the case of ACTACTAC, the switch fluorescence ratio is reported as 1.23.
GGGAATAATT was tested, and the switch fluorescence ratio was 1.02.
TAGTACGGGG gave a switch fluorescence ratio of 0.971.
GTCGACGTGT gave a switch fluorescence ratio of 0.963.
Work on GTTCACTTTA yielded a switch fluorescence ratio of 1.04.
AGGACACATT showed a switch fluorescence ratio of 1.05.
With GGCAGTCGCC the switch fluorescence ratio was 0.976.
Work on GGTGAGATTT yielded a switch fluorescence ratio of 1.03.
CGGGTGGTAA showed a switch fluorescence ratio of 1.
With ACGTTCGAAG the switch fluorescence ratio was 1.06.
Sequence GTTGAACTCT has a switch fluorescence ratio of 0.979.
TCTAATGACT gave a switch fluorescence ratio of 0.993.
With TAATTGTCA the switch fluorescence ratio was 0.977.
CATGAGTTC was tested, and the switch fluorescence ratio was 0.97.
For CTGGGACCAT, the switch fluorescence ratio was 1.
CTCAAGTGAT was tested, and the switch fluorescence ratio was 1.06.
For GCAGGAGTTT, the switch fluorescence ratio was 0.996.
With TTTGGAAG the switch fluorescence ratio was 0.988.
Work on TTTACTGCAA yielded a switch fluorescence ratio of 1.07.
Work on AAGCCGCCTG yielded a switch fluorescence ratio of 0.992.
With ATGTTTCGAC the switch fluorescence ratio was 1.02.
GTTTCGTGTC gave a switch fluorescence ratio of 1.02.
In the case of GAATTTTTAA, the switch fluorescence ratio is reported as 0.953.
Work on AACAATGGTG yielded a switch fluorescence ratio of 1.03.
Sequence ACAGTGGCGC has a switch fluorescence ratio of 1.08.
CGGAAAGTTC was tested, and the switch fluorescence ratio was 1.
With GGACCGCTTG the switch fluorescence ratio was 1.02.
Sequence CTGCTTAGTA has a switch fluorescence ratio of 0.997.
With GCATCAACAT the switch fluorescence ratio was 1.06.
ATCGCCCGCC was tested, and the switch fluorescence ratio was 1.14.
Sequence TTGGGTAAAG has a switch fluorescence ratio of 0.988.
Sequence AATTACCTTC has a switch fluorescence ratio of 1.49.
GGGAAAACTC was tested, and the switch fluorescence ratio was 1.06.
For ATTCTGTAGT, the switch fluorescence ratio was 1.06.
For TGGGCAATGA, the switch fluorescence ratio was 1.34.
For ACCTGCTAGA, the switch fluorescence ratio was 1.05.
ATTGCTCGGG was tested, and the switch fluorescence ratio was 0.986.
For AGGGGTAGAC, the switch fluorescence ratio was 0.956.
Work on ACTCACCAC yielded a switch fluorescence ratio of 1.4.
For GTTTATATT, the switch fluorescence ratio was 1.03.
For AGCAGGCAGG, the switch fluorescence ratio was 1.06.
With ACAGGAGTGG the switch fluorescence ratio was 0.978.
GGGTTCCATA was tested, and the switch fluorescence ratio was 1.01.
TGATCATGCA showed a switch fluorescence ratio of 1.04.
TTAAGAGCGG showed a switch fluorescence ratio of 1.08.
Sequence GAGGGACTTT has a switch fluorescence ratio of 1.01.
Sequence CTGAAAGCAC has a switch fluorescence ratio of 1.77.
CGTGCCGGTT was tested, and the switch fluorescence ratio was 1.08.
TAATGTGG was tested, and the switch fluorescence ratio was 0.989.
Sequence TTGCGCTATG has a switch fluorescence ratio of 1.01.
For GAATCCATGG, the switch fluorescence ratio was 0.997.
TAGAGGGAG showed a switch fluorescence ratio of 0.978.
For CAATATTTCT, the switch fluorescence ratio was 1.
For TTCCATCTGT, the switch fluorescence ratio was 1.01.
In the case of GTGCTAGATG, the switch fluorescence ratio is reported as 1.
With CAGTTCCGGA the switch fluorescence ratio was 1.09.
For CATGGCTTGA, the switch fluorescence ratio was 0.967.
ACGGCTCGGA showed a switch fluorescence ratio of 1.03.
ATAAAGTCAA gave a switch fluorescence ratio of 0.968.
ATGTGTGTAG was tested, and the switch fluorescence ratio was 1.08.
GGAAAGGCAG was tested, and the switch fluorescence ratio was 0.995.
TTTAGACATC was tested, and the switch fluorescence ratio was 1.01.
Work on GTGCACCAGC yielded a switch fluorescence ratio of 1.03.
In the case of AAGCGGGCAC, the switch fluorescence ratio is reported as 0.999.
For CCGAATAGGT, the switch fluorescence ratio was 0.96.
ATGCAGTTCA gave a switch fluorescence ratio of 0.981.
Sequence ACTCAGATGA has a switch fluorescence ratio of 1.02.
Work on TACACAACT yielded a switch fluorescence ratio of 1.14.
In the case of CGGTTCCAGT, the switch fluorescence ratio is reported as 1.05.
Work on GAACTCAGTA yielded a switch fluorescence ratio of 1.01.
CTTAGATTAG was tested, and the switch fluorescence ratio was 1.02.
GAGATCCCTA was tested, and the switch fluorescence ratio was 1.01.
AGCACAGTGT showed a switch fluorescence ratio of 1.04.
With TGACTAGGAG the switch fluorescence ratio was 0.986.
For CAGATGCGTG, the switch fluorescence ratio was 1.01.
For TTGGTATCCG, the switch fluorescence ratio was 1.05.
Work on GGAATACATT yielded a switch fluorescence ratio of 0.992.
TCGGACCGCT gave a switch fluorescence ratio of 1.04.
Work on GATATGCAAA yielded a switch fluorescence ratio of 0.991.
For GGTCCACTCA, the switch fluorescence ratio was 0.984.
In the case of TCTAAAAATT, the switch fluorescence ratio is reported as 1.16.
Sequence TACAATAGGC has a switch fluorescence ratio of 1.05.
CCTATACGGC was tested, and the switch fluorescence ratio was 1.04.
CTGGGGCA showed a switch fluorescence ratio of 1.02.
ACCGTGGGTT showed a switch fluorescence ratio of 0.992.
With ACCCCCTTGT the switch fluorescence ratio was 1.37.
In the case of ATTGATGTAT, the switch fluorescence ratio is reported as 1.
ACGAGAATTA was tested, and the switch fluorescence ratio was 1.04.
With CCGAAACCTG the switch fluorescence ratio was 1.27.
ACCAATACGG showed a switch fluorescence ratio of 1.2.
With AAGGGTAAG the switch fluorescence ratio was 1.04.
TGCCCCCTTC showed a switch fluorescence ratio of 1.07.
In the case of ACACGCTATA, the switch fluorescence ratio is reported as 1.54.
GTCCAGTTCA gave a switch fluorescence ratio of 1.01.
With TCCATTTTTA the switch fluorescence ratio was 1.03.
In the case of ATACGTGGCG, the switch fluorescence ratio is reported as 1.04.
For CTAGCACTAT, the switch fluorescence ratio was 1.21.
Sequence GAGAGCAAGA has a switch fluorescence ratio of 1.52.
With ACAATGTTT the switch fluorescence ratio was 1.05.
AAACGCCGT was tested, and the switch fluorescence ratio was 1.03.
CCGTTACTGA gave a switch fluorescence ratio of 1.06.
GTGTCTCTCC was tested, and the switch fluorescence ratio was 1.06.
With CCGCGATGGT the switch fluorescence ratio was 2.27.
TGTATGGGT was tested, and the switch fluorescence ratio was 0.973.
With GACGGTTTGG the switch fluorescence ratio was 1.05.
Work on GATTACGAAG yielded a switch fluorescence ratio of 0.966.
Sequence GCTAGCGTAC has a switch fluorescence ratio of 1.56.
ACCTCCTAAG was tested, and the switch fluorescence ratio was 1.15.
ACCCGTATTG was tested, and the switch fluorescence ratio was 1.04.
Sequence GTGCATAGGG has a switch fluorescence ratio of 1.02.
For TTGGGAAGAG, the switch fluorescence ratio was 1.01.
ACTATTTGAA was tested, and the switch fluorescence ratio was 1.
GGCGTTCAGG gave a switch fluorescence ratio of 1.01.
ATAGGGAGTT gave a switch fluorescence ratio of 0.933.
TTATCGGACA showed a switch fluorescence ratio of 1.01.
Sequence CAGTCGCTAG has a switch fluorescence ratio of 1.
With GTGTCGAGCG the switch fluorescence ratio was 0.982.
In the case of ACCATTGCTG, the switch fluorescence ratio is reported as 0.964.
ATGTTATTAA showed a switch fluorescence ratio of 0.96.
In the case of AGTAAAAGAT, the switch fluorescence ratio is reported as 0.992.
In the case of AACTGTCATG, the switch fluorescence ratio is reported as 1.03.
AGTAGGCCAG gave a switch fluorescence ratio of 0.961.
CCTCGTCTAG was tested, and the switch fluorescence ratio was 1.42.
Sequence ACCTGTGCTT has a switch fluorescence ratio of 1.02.
Work on AAGGATAGCA yielded a switch fluorescence ratio of 0.999.
TTATTGCGTG was tested, and the switch fluorescence ratio was 1.04.
With TCGAATGTC the switch fluorescence ratio was 1.02.
With GTTTGGCAGG the switch fluorescence ratio was 0.984.
Sequence CAAAAGTCTG has a switch fluorescence ratio of 0.975.
Sequence TTTCAAACAT has a switch fluorescence ratio of 1.05.
TAAAAGTTCG was tested, and the switch fluorescence ratio was 0.939.
AAGCACGAG gave a switch fluorescence ratio of 1.15.
For GCCATAGGGC, the switch fluorescence ratio was 1.03.
CACGATCATG gave a switch fluorescence ratio of 1.09.
Work on TATATCCTCG yielded a switch fluorescence ratio of 1.07.
AGTCATATAC was tested, and the switch fluorescence ratio was 2.67.
Sequence ACAGGAATGG has a switch fluorescence ratio of 1.03.
GAGTGAGCTA was tested, and the switch fluorescence ratio was 0.967.
Sequence CAACTTTTGG has a switch fluorescence ratio of 1.02.
For TATACAGCCA, the switch fluorescence ratio was 1.05.
Work on CGAGTGTTT yielded a switch fluorescence ratio of 0.92.
With TCTAGAAGGT the switch fluorescence ratio was 1.01.
For ACGAACAGTC, the switch fluorescence ratio was 1.25.
